The other results are listed elsewhere or left out.
System: T1, C. trachomatis L2/434/Bu expressing GFP (CTL2-GFP)
T1 construct: L2/434/Bu GFP intracellular growth in HeLa cells
Design: species or system HeLa; C. trachomatis total inclusion area by high-content imaging, normalised to DMSO
Conditions: total inclusion area; 28.5 h, 10 µM; inhibitor
Outline: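 Imaging read-out: GFP inclusions and Hoechst nuclei captured by high-content imaging after fixation. Inclusion area/number = chlamydial growth; nuclei count = host cell viability. MIC calculated per earlier method.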

Point of comparison: `O=C(O)c1cn(C2CC2)c2cc(N3CCN(C(=O)Cc4ccccc4Cl)CC3)c(F)cc2c1=O` [CBK297136], “% of control remaining” value 14.8386. Against it:
- O=C(NC1(c2ccccc2)CCCC1)c1ccc(=O)n(CC(=O)N2CCCCC2)c1 [CBK285631] — higher, 117.55
- C=CCn1c(-c2sc(NC(=O)CCc3ccco3)nc2C)n[nH]c1=S [CBK295312] — higher, 138.837
- CCCc1ccc(S(=O)(=O)Nc2cccc(C(=O)OCC)c2)cc1 [CBK034332] — higher, 92.7872
- Cn1c(=O)n(CC(=O)NCc2cccs2)c2cccnc21 [CBK283907] — higher, 97.3741
- c1coc(-c2cn3ccnc3c(NCCc3ccncc3)n2)c1 [CBK037333] — higher, 136.916
- O=C(CCCCCN1C(=O)c2ccccc2C1=O)NO [CBK288514] — higher, 118.091
- N#Cc1ccc(N2CCCC(N3CCNC3=O)C2)c(C(F)(F)F)c1 (centres unmarked) [CBK305162] — higher, 82.8104
- Cc1ccc(-c2nccnc2OCCOc2ccccc2)c(C)c1 [CBK106991] — higher, 104.835
- Cc1ccc(C)c(NC(=O)CN(Cc2ccc(Cl)c(Cl)c2)S(=O)(=O)c2ccccc2)c1 [CBK264191] — higher, 77.723
- O=C(O)CCC(=O)N1CCCC2(CCN(C(=O)Cc3c[nH]c4ccccc34)C2)C1 (centres unmarked) [CBK131572] — higher, 89.409
- COc1cc(CNc2ccc(N3CCCCC3)cc2)cc(Cl)c1OCc1cccs1 [CBK074586] — higher, 59.6214
- Cc1ccc2[nH]c(SCc3nc4ccccc4c(=O)[nH]3)nc2c1 [CBK269908] — higher, 102.397
- O=C(Cn1nnc(-c2ccccc2)n1)Nc1ccccc1C(=O)O [CBK264358] — higher, 108.39
- Cc1nc2ccc(NC(=O)CC(c3ccccc3)c3ccccc3)cc2s1 [CBK293988] — higher, 73.5845
- O=C(Cc1ccc(F)cc1Cl)N1CCn2c(nnc2C2CC2)C1 [CBK283773] — higher, 65.306
- CC(C)(C)OC(=O)N1CCCC(C(=O)NC2CCCc3ccccc32)C1 (centres unmarked) [CBK305617] — higher, 58.4624
- O=S(=O)(c1ccc(-c2csc(-c3cccnc3)n2)cc1)N1CCCCCC1 [CBK265502] — higher, 86.2478
- CCOC(=O)c1cnc(SCC(=O)N2c3ccccc3SC3C=CC=CC32)nc1N (centres unmarked) [CBK269029] — higher, 107.732
- COCC(=O)N[C@H]1C[C@@H](Cc2cc(C(C)(C)C)on2)C1(C)C [CBK289244] — higher, 101.347
- COc1cc(C)nc(NCc2cnn(C)c2C)n1 [CBK306277] — higher, 84.7783
- COc1ccc(CCN(CCN2CCOCC2)C(=O)NCc2ccc3c(c2)OCO3)cc1OC [CBK160540] — higher, 49.9531
- CCC(C)(C)c1ccc(S(=O)(=O)N(CCC#N)Cc2cccnc2)cc1 [CBK043960] — higher, 84.673
- CCCn1c(SCc2csc(COc3ccc(Cl)cc3)n2)n[nH]c1=O [CBK295140] — higher, 47.7791
- CCOc1ccc(S(=O)(=O)N2CCCN(Cc3c[nH]c(C)n3)CC2)c2cccnc12 [CBK063031] — higher, 67.0583
- COc1ccc(C(=O)N2CCC3(CCCN(Cc4nc5ccccc5[nH]4)C3)C2)cc1OC (centres unmarked) [CBK132847] — higher, 102.227
- c1ccc(SCCCSc2ccccn2)cc1 [CBK021704] — higher, 36.4552
- O=C(Cc1c[nH]c2ccccc12)N1CCC2(CCN(C(=O)c3cccnc3)C2)C1 (centres unmarked) [CBK131453] — higher, 98.0504
- C=CCNC(=O)CCn1c(C(C)C)cc2cccnc21 [CBK283289] — higher, 78.7271
- COc1ccc(CN2CCOCC2)cc1Br [CBK027346] — higher, 80.9866
- Oc1noc(O)c1-c1ncc(C(F)(F)F)cc1Cl [CBK007439] — higher, 76.0935
- CCc1nc2cc(NC(=O)Cn3cc(C)cn3)ccc2n1CC [CBK281608] — higher, 113.416
- O=C(NCCO)c1cccc(-c2cc(N3CCCC3CO)n3nccc3n2)c1 (centres unmarked) [CBK037187] — higher, 96.373
- Cc1cn([C@H]2C[C@@H](O)[C@@H](CO)O2)c(=O)nc1-n1cncn1 [CBK201235] — higher, 54.2574
- c1cc2c(cc1CN1CCC(Oc3cncc(OCCN4CCOCC4)n3)C1)OCO2 (centres unmarked) [CBK084487] — higher, 76.1552
- C[C@]12CN(Cc3cccs3)C[C@H]1C(=O)Nc1ccccc1C(=O)N2 [CBK284705] — higher, 116.65
- O=C(COc1ccc2ccccc2c1)OCC(=O)c1ccc([N+](=O)[O-])cc1 [CBK261586] — higher, 101.975
- CS(=O)(=O)NCC1(c2ccccc2)CCN(S(=O)(=O)c2c(Cl)cccc2Cl)CC1 [CBK051633] — higher, 108.295
- Cc1ccn(CCNC(=O)CSc2nccc3ccccc23)n1 [CBK282678] — higher, 114.418
- C=CCN1C(=O)CC2(C1=O)C(=O)N(CCCn1c(=O)c3c(ncn3C)n(C)c1=O)c1ccc(OC)cc12 (centres unmarked) [CBK075701] — higher, 109.147
- CCOC(=O)c1c(NC(=O)CSc2nc[nH]n2)sc2c1CCC2 [CBK267225] — higher, 83.2145
- Cc1ccc(NC(=O)c2cc(NC(=O)C3C4C=CC(C4)C3C(=O)O)ccc2N2CCCCC2)cc1 (centres unmarked) [CBK265350] — higher, 93.2607
- COc1ccc(NC(=O)Cc2csc(NC(C)=O)n2)cc1 [CBK287650] — higher, 70.6327
- COC(=O)c1sc2ncccc2c1NS(=O)(=O)Cc1ccccc1[N+](=O)[O-] [CBK049974] — higher, 110.206
- FC(F)(F)c1ccnc(SCc2ccc(Cl)c(Cl)c2)n1 [CBK103723] — higher, 76.2263
- O=C(Nc1ncn(CC(=O)N2CCCCCC2)n1)c1cccc(F)c1 [CBK304904] — higher, 109.152
- C1=CC2CC1CC2CN1CCC(N(CCc2ccccc2)Cc2ccccc2)CC1 (centres unmarked) [CBK264613G] — higher, 94.0847
- NC(=O)C1CCN(C(=O)CCCSc2nc(-c3ccco3)cc(C(F)(F)F)n2)CC1 [CBK268844] — higher, 86.4936
- Cn1c(CSCc2ccccc2F)nnc1SCC(=O)c1ccc(Br)cc1 [CBK269143] — higher, 111.22
- CC(C)CN1C(=O)c2ccc(C(=O)NCc3ccc(C(=O)O)cc3)cc2C1=O [CBK286898] — higher, 57.9985
